From PubChem BioAssay AID720542 (National Center for Advancing Translational Sciences (NCATS), 2013)
Hit rate of the full screen: of about 360,000 compounds, about 740 (0.21%) were called active. This list was built around the results that the source calls inconclusive (neither active nor inactive); the mix of calls is not that of the screen. The call rests on the fitted dose curve; in most records, active means well fitted inhibition curve with a large enough effect; inconclusive means small, poorly fitted or top-dose-only effect; inactive means no such curve, though single readings can be large or run the other way. No potency is given beside an inconclusive call; the fits are too rough.

Tested on: Plasmodium falciparum AMA1 (3D7) - RON2 peptide interaction
Test: qHTS for Inhibitors of AMA1-RON; Towards Development of Antimalarial Drug Lead: Primary Screen; further: nearly all actives have a fitted effect of over 45% in size;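 on activity change, negative = inhibition: 0% = vehicle wells and -100% = peptide control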
Conditions: AlphaScreen AMA1-biotinylated RON2 peptide binding; activity change, negative = inhibition: at 58.2 µM (top of the series) unless noted
Outline: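 AMA1 (3D7) with his tag at 25 nM final met compounds first, then biotinylated RON2 peptide at 25 nM; detection used donor plus acceptor beads, 10 µg/mL apiece, read by AlphaScreen after 30 min at room temperature.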
Potency means the concentration at half of the fitted maximal effect; tags describe the fitted curve by direction and shape.

SMILES	activity change, negative = inhibition	Potency
COc1ccc(C(=O)NNC(=O)C(=O)NC2CCCCC2)cc1	inactive: 58%	–
CC(=O)Nc1nc(C)c(CCC2OCCO2)c(=O)[nH]1	inactive: -3.3%	–
CCCCC(CC)CNCc1cccn1CCN1CCOCC1 (configuration not stated)	–	inconclusive [inhibitor, single point]
CCOC(=O)C(=O)N1c2ccccc2C(N(C(=O)C(=O)OCC)c2ccccc2)CC1C (configuration not stated)	–	inconclusive [inhibitor, single point]
O=C(O)c1cc(O)c2c(c1)[C@H]([C@H]1c3cc(C(=O)O)cc(O)c3C(=O)c3c(O[C@@H]4O[C@H](CO)[C@@H](O)[C@H](O)[C@H]4O)cccc31)c1cccc(OC3O[C@H](CO)[C@@H](O)[C@H](O)[C@H]3O)c1C2=O (some centres not stated)	–	active: 0.891 µM
CC1=NN(Cc2ccccc2)C(=O)/C1=C/c1ccc(N(C)C)cc1	–	inconclusive [inhibitor, partial curve]
C#CCNC(=O)C1=C[C@H](c2cn(C(C)=O)c3ccccc23)C[C@H](OCc2ccc(CO)cc2)O1	inactive: -11%	–
N#C/C(=C\c1ccc(N2CCOCC2)cc1)c1ccccc1	–	inconclusive [inhibitor, partial curve]
CCN1CCCC(OC(=O)c2cc(-c3ccc(C)cc3)nc3ccccc23)C1 (configuration not stated)	–	inconclusive [inhibitor, partial curve]
COc1ccc(Cl)cc1NC(=O)Nc1cnccn1	inactive: -13.1%	–
O=C(c1ccccc1F)N1CCN(C2CCC(c3ccccc3)CC2)CC1 (configuration not stated)	–	inconclusive [inhibitor, single point]
CN(C)c1ccc(C2CC(c3cccc(NS(C)(=O)=O)c3)=NN2C(=O)c2ccccc2)cc1 (configuration not stated)	–	inconclusive [inhibitor, single point]
c1ccc(OCCOCCN2CCN(C(c3ccccc3)c3ccccc3)CC2)cc1	–	inconclusive [inhibitor, partial curve, poor fit]
NC(=O)C1CN(C(=O)c2cccc(S(=O)(=O)N3CCc4ccccc43)c2)c2ccccc2O1 (configuration not stated)	inactive: 12.2%	–
CC(C(=O)Nc1ccc(S(=O)(=O)N2CCCC2)cc1)N1CCc2ccccc2C1 (configuration not stated)	–	inconclusive [inhibitor, full curve, poor fit]
O=C(NC1CCC(O)CC1)c1ccc(NS(=O)(=O)c2cccc([N+](=O)[O-])c2)cc1 (configuration not stated)	inactive: 54.7%	–
COc1ccccc1CNc1nc(Nc2cccc(-c3cnco3)c2)c2sccc2n1	–	inconclusive [inhibitor, partial curve]
Cc1ccccc1OCCn1cc(C(=S)N2CCN(C)CC2)c2ccccc21	–	inconclusive [inhibitor, single point]
COc1ccc(CN2CCN(C(C)C(=O)N(C)Cc3cccc(F)c3)CC2)cc1OC (configuration not stated)	–	inconclusive [inhibitor, partial curve]
Cc1cc(NC(=O)CCN2CCN(C/C=C/c3ccccc3)CC2)ccc1Br	–	inconclusive [inhibitor, partial curve]
CCCC(=O)Nc1cccc2c1CCCC2	inactive: 7.92%	–
CN1CCN(C(=S)c2cn(Cc3ccc(Br)cc3)c3ccccc23)CC1	–	inconclusive [inhibitor, single point]
Cc1ccccc1OCC(O)Cn1c2ccccc2c2ccccc21 (configuration not stated)	inactive: 44%	–

SMILES	activity change, negative = inhibition	Potency
Cc1nc2nc(C)n(CCN3CCOCC3)c(=O)c2c(-c2cccc([N+](=O)[O-])c2)c1C(=O)CCCCCCCCCCN1CCC(c2ccccc2)(c2ccccc2)CC1	–	inconclusive [inhibitor, single point]
O=[N+]([O-])c1cc(S(=O)(=O)Nc2ccccc2)ccc1N1CCN(c2ccccc2)CC1	–	inconclusive [inhibitor, partial curve]
Cc1cc(O)c(-c2cc(O)c(C)cc2O)cc1O	–	inconclusive [inhibitor, single point]
COc1cc(/C=C/C=C2/CC/C(=C/C=C/c3ccc(O)c(OC)c3)C2=O)ccc1O	–	inconclusive [inhibitor, partial curve]
Cc1ccc(C(C(=O)NC2CCCCC2)N(CCCN2CCOCC2)C(=O)c2snc(C(N)=O)c2N)cc1 (configuration not stated)	inactive: -9.43%	–
Cc1ccc(OCC(=O)N2CCN(Cc3ccc([N+](=O)[O-])cc3)CC2)cc1	–	inconclusive [inhibitor, single point]
COc1ccc(N2CCN(C(=O)CCCN3C(=O)c4cccc5cccc(c45)C3=O)CC2)cc1	–	inconclusive [inhibitor, single point]
CN(c1ccccc1)c1ccc(/C=N/N2CCOCC2)cc1	–	active: 11.2 µM
O=[N+]([O-])c1ccc2c(c1)C(=Nc1ccccc1)c1ccccc1-2	–	inconclusive [inhibitor, single point]
CCCn1c(Nc2cccc(OC)c2)nc2ccccc21	inactive: -0.0493%	–
COc1ccc(CN2CCN(C(=O)c3cccc4ccccc34)CC2)cc1OC	–	inconclusive [inhibitor, single point]
O=C(NCCCCCCNC(=O)OCc1ccccc1)OCc1ccccc1	–	inconclusive [inhibitor, full curve, poor fit]
Cc1ccc(Nc2ccc(NCc3ccccc3)nn2)cc1C	–	inconclusive [inhibitor, single point]
Cc1ccccc1[N+](=O)[O-]	inactive: 0%	–
O=C(c1cc(-c2cccs2)on1)N1CCc2ccccc2C1	inactive: 11.4%	–
Nc1nonc1C(=O)N1CCCCC1	–	inconclusive [inhibitor, partial curve]
COc1ccccc1CN1CCN(C(=O)COc2ccc3ccccc3c2)CC1	–	inconclusive [inhibitor, partial curve]
O=C(c1ccc(F)cc1)N1CCN(C2CCCCC2)CC1	–	inconclusive [inhibitor, single point]
COc1cccc(C2=NOC(C(=O)Nc3cccnc3Cl)C2)c1OC (configuration not stated)	–	inconclusive [inhibitor, single point]
Cc1oc(C(C)(C)C)c(CN2CCOCC2)c1C(=O)O	inactive: 4.01%	–
CCNc1ccc(Br)cc(C(=O)/C=C/c2c(Cl)cccc2Cl)c1=O	–	inconclusive [inhibitor, partial curve]
COc1ccccc1-c1noc(-c2ccccc2C(=O)NCC2CCCO2)n1 (configuration not stated)	inactive: -4.69%	–
Cc1ccccc1NC1=C/C(=N\S(=O)(=O)c2cccs2)c2ccccc2C1=O	–	active: 8.91 µM

SMILES	activity change, negative = inhibition	Potency
CCn1c2ccccc2c2cc(NC(=O)CNCc3ccccc3OC)ccc21	–	inconclusive [inhibitor, single point]
CCC(C)c1ccccc1NC(=O)C(C)N(C)Cc1cccc(OC)c1 (configuration not stated)	–	inconclusive [inhibitor, single point]
COc1ccc(C(=S)N2CCN(c3cccc(Cl)c3)CC2)c(OC)c1	–	inconclusive [inhibitor, partial curve]
COc1ccccc1-c1nc(C#N)c(N2CCc3ccccc3C2)o1	–	inconclusive [inhibitor, partial curve]
CCN(CC)c1ccc(C2C3CCCCC3(O)CCN2CC(=O)Nc2ccccc2)cc1 (configuration not stated)	–	inconclusive [inhibitor, partial curve]
O=C(C1CCCCC1)N1CCN=C1SCc1cccc([N+](=O)[O-])c1	–	inconclusive [inhibitor, partial curve]
O=C(Nc1ccc2nc(-c3ccco3)c(-c3ccco3)nc2c1)NC1CC1	–	inconclusive [inhibitor, full curve]
O=C(c1cccc(-c2ccco2)c1)N1CCCC(N2CCN(c3ccc(F)cc3)CC2)C1 (configuration not stated)	–	inconclusive [inhibitor, single point]
CCS(=O)(=O)c1ccc(N=Nc2ccc(O)c3ncccc23)c(OC)c1	–	inconclusive [inhibitor, single point]
Nc1nnc(-c2ccncc2)s1	inconclusive: 8.53% [inhibitor]	–
COc1cc(O)c(C(CC(=O)N2CCCC(C)C2)c2ccc(N(C)C)cc2)c(OC)c1 (configuration not stated)	–	inconclusive [inhibitor, single point]
O=Cc1cc(N=Nc2ccccc2Cl)ccc1O	–	inconclusive [inhibitor, single point]
CSc1ccccc1NC(=O)CO/N=C(\C)c1cc2ccccc2o1	inactive: 8.93%	–
CC12CCC(/C(=C/NNc3ccc([N+](=O)[O-])cc3[N+](=O)[O-])C1=O)C2(C)C (configuration not stated)	–	inconclusive [inhibitor, partial curve]
CC(C)CNS(=O)(=O)c1ccc(CCC(=O)Nc2ccc3c(c2)OCO3)cc1	inactive: -3.68%	–
Cc1cc(C(=O)CSc2nnc(-c3cccc(F)c3)n2N)c(C)n1Cc1ccc2c(c1)OCO2	–	inconclusive [inhibitor, partial curve]
CCOc1ccc(NC(=O)CN(C)C(=O)c2ccc(N3CCCCCC3)c([N+](=O)[O-])c2)cc1OCC	–	inconclusive [inhibitor, partial curve]
COc1cc(OC)c(OC)cc1CN1CCN(S(=O)(=O)c2ccc(F)cc2)CC1	–	inconclusive [inhibitor, single point]
O=C(Nc1nc(=O)n(C(=O)C2CC2)s1)c1ccccc1	inactive: 3.83%	–
COc1ccc(NC(C)=O)cc1S(=O)(=O)Nc1ccccc1C(=O)NCCc1ccccc1	inactive: 15.5%	–
C[C@H](c1ccccc1)N1C[C@@H](COCc2ccccc2)Oc2cc(N3CC[C@H](N(C)C)C3)ccc2S1(=O)=O	–	inconclusive [inhibitor, partial curve]
